Among all 39,000 compounds or so, about 220 (0.56%) showed activity. This is one part of the list.
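Note: static incubation at 37 °C against the wild-type strain, values averaged over two biological replicates.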

This assay deals with Escherichia coli K-12 BW25113. The assay can be described thus: relative growth (OD600 normalised to plate interquartile mean) (fraction); higher = less growth inhibition, active = 0.2 or less. The conditions noted are these: 50 µM; LB; incubation time: overnight (16-24 h).
In the case of `O=C(COc1ccccc1)N1CCNC1=O`, the relative growth was inactive: 0.995.

Turning to `C[C@H]1CN([C@@H](C)CO)C(=O)Cc2cc(NC(=O)Cc3ccccc3)ccc2O[C@H]1CN(C)S(=O)(=O)c1cccs1`, the relative growth is inactive: 1.01.

As for `C[C@H](CO)N1C[C@H](C)[C@@H](CN(C)S(=O)(=O)c2cccs2)Oc2c(NC(=O)CCCN(C)C)cccc2C1=O`, the relative growth is inactive: 0.993.

`Cn1cnc(-c2cc3nccc(Oc4ccc(NC(=S)NC(=O)Cc5ccccc5)cc4F)c3s2)c1`: the relative growth is inactive: 1.05.

Turning to `O=C(Cc1ccncc1)Nc1ccc2c(c1)[C@H]1C[C@@H](CC(=O)N3CCc4ccccc4C3)O[C@@H](CO)[C@H]1O2`, the relative growth is inactive: 1.03.

For the molecule `COc1ccc(S(=O)(=O)Nc2ccc3c(c2)C(=O)N([C@@H](C)CO)C[C@@H](C)[C@H](CN(C)S(=O)(=O)c2cn(C)cn2)O3)cc1`, the relative growth was inactive: 0.978.

Turning to `N[C@@H](c1ccncc1)c1ccc(OCc2ccccc2)cc1`, the relative growth is inactive: 1.

For `C[C@H](CO)N1C[C@H](C)[C@H](CN(C)C(=O)Cc2ccccc2)OCCCC[C@H](C)Oc2ccc(NC(=O)Cc3ccccc3)cc2C1=O`, the relative growth is inactive: 1.01.

Take `C[C@@H]1CCCCO[C@@H](CN(C)Cc2ccc(C(F)(F)F)cc2)[C@H](C)CN([C@H](C)CO)C(=O)c2cc(NC(=O)CCCN(C)C)ccc2O1`: the relative growth is inactive: 0.977.

Consider `C[C@H]1CN([C@@H](C)CO)S(=O)(=O)c2ccc(C#Cc3ccccc3)cc2O[C@H]1CN(C)C(=O)CN(C)C`, for which the relative growth was inactive: 0.96.

`C[C@H](CO)N1C[C@H](C)[C@@H](CN(C)C(=O)C2CCCCC2)OCCCC[C@H](C)Oc2ccc(NC(=O)Nc3ccc(C(F)(F)F)cc3)cc2C1=O`: the relative growth is inactive: 1.01.

For the molecule `Cc1cc(C(=O)Nc2cccc3c2O[C@@H](CN(C)S(=O)(=O)c2ccc(F)cc2)[C@H](C)CN([C@H](C)CO)C3=O)n(C)n1`, the relative growth is inactive: 1.01.

Consider `C[C@H]1CCCCO[C@H](CN(C)Cc2ccncc2)[C@@H](C)CN([C@@H](C)CO)C(=O)c2cc(NC(=O)c3ccccc3)ccc2O1`, for which the relative growth is inactive: 1.02.

As for `C[C@@H]1CN([C@H](C)CO)C(=O)c2cc(NC(=O)Cc3ccccc3)ccc2O[C@@H](C)CCCCO[C@@H]1CN(C)C(=O)c1ccccc1`, the relative growth is inactive: 1.04.

Turning to `C[C@@H]1CCCCO[C@@H](CN(C)C(=O)Nc2cccc3ccccc23)[C@@H](C)CN([C@H](C)CO)C(=O)c2cc(NC(=O)Nc3ccc(C(F)(F)F)cc3)ccc2O1`, the relative growth is inactive: 0.986.

Consider `CC(C)Nc1ncccn1`, for which the relative growth was inactive: 0.953.

For the molecule `CCCCCCCCNC[C@@H](O)[C@H](O)[C@@H](O)[C@@H](O)CO`, the relative growth was inactive: 0.999.

Turning to `C[C@H](CO)N1C[C@H](C)[C@H](CN(C)C(=O)NC2CCCCC2)Oc2c(NS(C)(=O)=O)cccc2C1=O`, the relative growth is inactive: 0.992.

On to `C[C@H]1CN([C@@H](C)CO)C(=O)c2cc(NS(=O)(=O)c3ccc(F)cc3)ccc2O[C@@H]1CN(C)Cc1ccncc1`, for which the relative growth was inactive: 0.995.

As for `C[C@H](CO)N1C[C@H](C)[C@@H](CN(C)C(=O)Nc2ccc(C(F)(F)F)cc2)Oc2c(NC(=O)C3CCCCC3)cccc2C1=O`, the relative growth is inactive: 0.841.

Take `COc1ccc(S(=O)(=O)Nc2ccc3c(c2)C(=O)N([C@H](C)CO)C[C@H](C)[C@H](CN(C)Cc2ccc(C(F)(F)F)cc2)OCCCC[C@@H](C)O3)cc1`: the relative growth was inactive: 1.04.

For `COc1ccc(NC(=O)Nc2ccc3c(c2)C(=O)N([C@H](C)CO)C[C@H](C)[C@@H](CN(C)Cc2ccc(Oc4ccccc4)cc2)O3)cc1`, the relative growth was inactive: 1.06.

Consider `COCC(=O)Nc1ccc2c(c1)C(=O)N(C)C[C@H](OC)[C@@H](C)CN(C(=O)Cc1ccccn1)[C@H](C)CO2`, for which the relative growth is inactive: 1.03.

In the case of `C[C@@H]1CN([C@@H](C)CO)C(=O)c2cc(NS(=O)(=O)c3cn(C)cn3)ccc2O[C@H]1CN(C)Cc1ccc(C(=O)O)cc1`, the relative growth is inactive: 0.999.

`Cc1ccccc1S(=O)(=O)N1C[C@@H](O)COC[C@H]2O[C@H](CC(=O)NCc3ccccc3Cl)CC[C@@H]21`: the relative growth was inactive: 1.01.

`COc1ccc(S(=O)(=O)N(C)C[C@@H]2OCCCC[C@@H](C)Oc3ccc(NC(=O)Nc4cccc5ccccc45)cc3C(=O)N([C@@H](C)CO)C[C@H]2C)cc1`: the relative growth was inactive: 1.03.

`Cc1ccc(S(=O)(=O)Nc2ccc3c(c2)C(=O)N([C@@H](C)CO)C[C@H](C)[C@@H](CN(C)S(C)(=O)=O)OCCCC[C@H](C)O3)cc1`: the relative growth was inactive: 0.991.

Take `C[C@H]1CN([C@@H](C)CO)C(=O)c2cccc(NC(=O)c3cnccn3)c2O[C@H]1CN(C)S(=O)(=O)c1ccccc1`: the relative growth was inactive: 0.973.

As for `C[C@@H]1CN([C@H](C)CO)C(=O)CCCn2nncc2CO[C@@H]1CN(C)C(=O)Nc1ccc2c(c1)OCCO2`, the relative growth is inactive: 1.

Take `C[C@@H]1CCCCO[C@H](CN(C)C(=O)CCC(F)(F)F)[C@@H](C)CN([C@H](C)CO)C(=O)c2cc(NC(=O)c3ccccc3)ccc2O1`: the relative growth is inactive: 0.988.

With `O=C(NC[C@@H](O)CO)[C@]1(Cc2ccccc2)N=C(c2ccc(OCCCO)cc2)O[C@@H]1c1ccccc1`, the relative growth was inactive: 1.01.

`Cc1noc(C)c1NC(=O)N(C)C[C@H]1Oc2ccc(NC(=O)Nc3ccc(C(F)(F)F)cc3)cc2CC(=O)N([C@H](C)CO)C[C@H]1C`: the relative growth was inactive: 0.935.

`Cc1ccc(S(=O)(=O)N(C)C[C@H]2Oc3c(NC(=O)C4CC4)cccc3C(=O)N([C@H](C)CO)C[C@H]2C)cc1`: the relative growth was inactive: 0.988.

Take `C[C@H]1CCCCO[C@H](CN(C)S(=O)(=O)c2ccccc2)[C@@H](C)CN([C@@H](C)CO)C(=O)c2cc(NC(=O)Nc3ccc(F)cc3)ccc2O1`: the relative growth was inactive: 0.992.

With `COc1ccc(CN(C)C[C@H]2Oc3ccc(NS(C)(=O)=O)cc3C(=O)N([C@H](C)CO)C[C@H]2C)cc1`, the relative growth is inactive: 0.966.

Consider `CCOC(=O)C(=O)c1csc(NC=O)n1`, for which the relative growth is inactive: 1.

Consider `C[C@H]1CN([C@@H](C)CO)C(=O)c2cccc(NC(=O)Nc3cccc4ccccc34)c2O[C@@H]1CN(C)C(=O)NC1CCCCC1`, for which the relative growth is inactive: 0.947.

In the case of `C[C@@H]1CN([C@@H](C)CO)C(=O)c2cccc(NS(=O)(=O)c3cccs3)c2O[C@H]1CN(C)Cc1ccncc1`, the relative growth is inactive: 0.999.

As to `C[C@H](CO)N1C[C@H](C)[C@@H](CN(C)C(=O)Nc2ccc(C(F)(F)F)cc2)OCc2cnnn2CCCC1=O`, the relative growth was inactive: 0.983.

For `NCc1nc2c([nH]1)CCCC2`, the relative growth was inactive: 1.01.

For the molecule `CO[C@@H]1CN(C)C(=O)c2cc(NC(=O)C3CCOCC3)ccc2OC[C@@H](C)N(CC2CCOCC2)C[C@H]1C`, the relative growth was inactive: 1.01.

For the molecule `C[C@H](CO)N1C[C@H](C)[C@H](CN(C)C(=O)Nc2cccc3ccccc23)Oc2ncc(-c3cccc(C(F)(F)F)c3)cc2C1=O`, the relative growth was inactive: 1.03.

Regarding `C[C@@H]1CN([C@@H](C)CO)C(=O)Cc2cc(NC(=O)Cc3ccccc3)ccc2O[C@@H]1CN(C)S(=O)(=O)c1cccs1`, the relative growth was inactive: 1.05.

For the molecule `CN1C(=O)c2cc(NC(=O)C3CCOCC3)ccc2OC[C@@H]2O[C@H](CC(=O)NCc3ccc4c(c3)OCO4)CC[C@@H]21`, the relative growth is inactive: 0.981.

In the case of `CC(C)NC(=O)N(C)C[C@H]1Oc2cc(C#Cc3ccccn3)ccc2S(=O)(=O)N([C@@H](C)CO)C[C@H]1C`, the relative growth is inactive: 1.01.

Turning to `CCn1cc(C(=O)O)c(=O)c2cnc(N3CCCC3)nc21`, the relative growth was inactive: 1.09.

Regarding `COc1ccccc1C#Cc1ccc2c(c1)O[C@H](CN(C)Cc1ccncc1)[C@@H](C)CN([C@H](C)CO)S2(=O)=O`, the relative growth is inactive: 1.

Take `COc1ccc(NC(=O)N(C)C[C@H]2Oc3ncc(C#CCN(C)C)cc3C(=O)N([C@@H](C)CO)C[C@@H]2C)cc1`: the relative growth is inactive: 1.

Regarding `CO[C@H]1[C@@H](O)[C@H](n2ccc(N)nc2=O)O[C@@H]1CO`, the relative growth was inactive: 0.977.

Turning to `Cc1cccc(CO)n1`, the relative growth is inactive: 0.975.

As for `CO[C@@H]1CN(C)C(=O)c2ccc(NS(=O)(=O)c3cn(C)cn3)cc2OC[C@@H](C)N(CCC(F)(F)F)C[C@@H]1C`, the relative growth is inactive: 1.01.

On to `COc1ccc(CN(C)C[C@H]2OCCCC[C@H](C)Oc3ccc(NC(=O)C4CCCCC4)cc3C(=O)N([C@H](C)CO)C[C@@H]2C)cc1`, for which the relative growth was inactive: 0.998.

Consider `CC(C)(C)OC(=O)CC[C@]1(C(=O)NC[C@@H](O)CO)COC(c2ccc(OCCCO)cc2)=N1`, for which the relative growth was inactive: 1.01.

For the molecule `COc1ccc([Si](C)(C)[C@H]2[C@H](CC(=O)N3Cc4ccccc4C[C@H]3CO)O[C@@]3(C(=O)N(Cc4cccc(N5CCCCC5=O)c4)c4ccccc43)[C@@H]2C)cc1`, the relative growth was inactive: 1.03.

Regarding `CS(=O)(=O)Nc1ccc2c(c1)[C@@H]1C[C@@H](CC(=O)NCC3CC3)O[C@@H](CO)[C@@H]1O2`, the relative growth was inactive: 0.975.

Turning to `C[C@H]1CCCCO[C@@H](CN(C)Cc2ccc(C(=O)O)cc2)[C@@H](C)CN([C@@H](C)CO)C(=O)c2cc(NC(=O)NC3CCCCC3)ccc2O1`, the relative growth was inactive: 1.01.

For the molecule `CNC[C@@H]1Oc2cc(C#CCN(C)C)ccc2S(=O)(=O)N([C@H](C)CO)C[C@H]1C`, the relative growth is inactive: 1.01.

With `C[C@@H]1CN([C@H](C)CO)C(=O)Cc2cc(NC(=O)CCCN(C)C)ccc2O[C@H]1CN(C)S(=O)(=O)c1ccc(F)cc1`, the relative growth was inactive: 0.994.

Consider `COc1ccc(S(=O)(=O)Nc2ccc3c(c2)CC(=O)N([C@@H](C)CO)C[C@H](C)[C@H](CN(C)S(=O)(=O)c2cn(C)cn2)O3)cc1`, for which the relative growth was inactive: 1.03.

On to `Cc1noc(C)c1S(=O)(=O)Nc1ccc2c(c1)C(=O)N([C@@H](C)CO)C[C@@H](C)[C@H](CN(C)Cc1ccccc1)OCCCC[C@H](C)O2`, for which the relative growth was inactive: 1.

Values taken from the supplement of paper PMC9446081.
